In paper PMC10657792, “Downstream Allosteric Modulation of NMDA Receptors by 3-Benzazepine Derivatives” (Molecular Neurobiology, 2023):
Where “and” joins values, the source holds several entries; their conditions need not be identical. Equal values may be shown once. Further values from the same series stand in other lists.

Assays:
Experiment in all cases: TEVC recording in X. laevis oocytes, GluN2B mutant screening
Type in all cases: cell-based
GluN1a wt/ GluN2B F176A = GluN1a wt/ GluN2B F176A (Rattus norvegicus, UniProt P35439+Q00960, F176A); settings: GluN1-1a/F176A, individual oocytes
Sequence of GluN1a wt/ GluN2B F176A (Q00960 27-1482 F176A, other chains not shown): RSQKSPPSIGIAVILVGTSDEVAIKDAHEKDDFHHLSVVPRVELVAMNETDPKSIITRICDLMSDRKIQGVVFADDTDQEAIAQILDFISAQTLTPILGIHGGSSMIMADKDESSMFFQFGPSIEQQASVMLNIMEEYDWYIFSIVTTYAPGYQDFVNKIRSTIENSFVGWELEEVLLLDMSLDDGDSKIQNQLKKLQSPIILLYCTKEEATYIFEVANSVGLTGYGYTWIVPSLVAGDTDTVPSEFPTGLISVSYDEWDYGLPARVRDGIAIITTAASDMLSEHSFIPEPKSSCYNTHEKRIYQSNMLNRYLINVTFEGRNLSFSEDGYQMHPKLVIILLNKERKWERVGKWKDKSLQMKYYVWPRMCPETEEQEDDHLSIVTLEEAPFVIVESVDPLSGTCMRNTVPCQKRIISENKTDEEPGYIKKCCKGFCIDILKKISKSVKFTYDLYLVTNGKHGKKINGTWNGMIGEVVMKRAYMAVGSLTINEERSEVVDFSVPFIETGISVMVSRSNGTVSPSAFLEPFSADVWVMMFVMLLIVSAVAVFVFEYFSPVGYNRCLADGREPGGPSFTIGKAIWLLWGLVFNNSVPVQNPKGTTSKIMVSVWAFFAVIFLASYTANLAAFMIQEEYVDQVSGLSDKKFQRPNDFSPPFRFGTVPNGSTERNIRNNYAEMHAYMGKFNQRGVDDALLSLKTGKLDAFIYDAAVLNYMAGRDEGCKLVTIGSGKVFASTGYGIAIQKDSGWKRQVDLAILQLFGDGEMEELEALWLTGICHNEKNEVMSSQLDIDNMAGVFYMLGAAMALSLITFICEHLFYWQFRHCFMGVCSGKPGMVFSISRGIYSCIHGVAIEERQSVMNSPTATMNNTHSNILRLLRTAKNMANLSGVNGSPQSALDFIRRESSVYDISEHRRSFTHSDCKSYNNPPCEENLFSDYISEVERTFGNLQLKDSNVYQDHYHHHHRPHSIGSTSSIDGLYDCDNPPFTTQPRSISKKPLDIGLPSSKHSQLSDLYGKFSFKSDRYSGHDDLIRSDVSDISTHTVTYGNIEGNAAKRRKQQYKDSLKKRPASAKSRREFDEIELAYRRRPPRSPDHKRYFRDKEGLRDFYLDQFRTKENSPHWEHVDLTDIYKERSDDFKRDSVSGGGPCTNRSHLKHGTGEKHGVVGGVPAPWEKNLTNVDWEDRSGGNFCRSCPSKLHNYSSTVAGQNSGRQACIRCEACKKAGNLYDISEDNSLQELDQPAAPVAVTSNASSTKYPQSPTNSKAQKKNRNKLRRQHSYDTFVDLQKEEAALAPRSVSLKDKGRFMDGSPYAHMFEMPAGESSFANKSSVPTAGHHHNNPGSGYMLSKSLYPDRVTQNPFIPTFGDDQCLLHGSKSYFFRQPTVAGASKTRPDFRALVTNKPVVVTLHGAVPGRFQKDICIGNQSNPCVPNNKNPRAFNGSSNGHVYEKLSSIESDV
Method: Single point mutations were incorporated into template DNA (GluN1-1b wt/ pSGEM and GluN2B wt/ pSGEM) by using the QuikChange II XL site-directed mutagenesis kit (Agilent Technologies, Germany). Mutagenesis primers were designed using the QuikChange Primer Design Program (Agilent) and provided by Microsynth (Microsynth AG, Balgach, Switzerland). For mutation of the desired amino acid in the gene, PCR amplification was performed with the respective mutagenesis primers (Eppendorf MasterCycler Gradient, Eppendorf Hamburg, Germany). Mutations were verified by automated DNA sequencing. Constructs were linearized with PacI (GluN1) or NheI (GluN2B). cRNA was prepared byin vitrotranscription using the mMessage mMachine T7 kit (Life Technologies, Darmstadt, Germany).
The NMDAR was expressed in stage V and VI oocytes originated from X. laevis. Oocytes were provided by Ecocyte Bioscience (Dortmund, Germany), and equimolar amounts of wild-type and mutated GluN1 and GluN2B cRNA were injected (0.8 ng each). The oocytes were incubated in Barth’s solution, containing (mmol l^−1): 88 NaCl, 1 KCl, 0.4 CaCl2, 0.33 Ca(NO3)2, 0.6 MgSO4, 5 TRIS–HCl, 2.4 NaHCO3, supplemented with 80 mg l^−1 theophylline, 63 mg l^−1 benzylpenicillin, 40 mg l^−1 streptomycin, and 100 mg l^−1 gentamycin and maintained at 18 °C until usage. After injection, the oocytes were incubated for 5 days at 18 °C. Subsequently, the activity of the expressed NMDARs in the oocytes was recorded by two-electrode voltage clamp (TEVC).
The compounds were retrieved as 10 mM stock solutions in DMSO and were subsequently diluted with agonist solution and adjusted to 0.1% DMSO concentration. Inhibition of each compound was measured via TEVC in X. laevis oocytes at room temperature using a Turbo Tec 10CX amplifier (NPI electronic, Tamm, Germany), NI USB 6221 DA/AD Interface (National Instruments, Austin, USA), and GePulse Software (Dr. Michael Pusch, Genova, Italy). Ba^2+-Ringer, consisting of 10 mM HEPES, 90 mM NaCl, 1 mM KCl, and 1.5 mM BaCl2, adjusted to pH 7.4, was used for TEVC measurements. Agonist solution containing 10 µM glycine and 10 µM (S)-glutamate was prepared in Ba^2+-Ringer, and the measurements were performed at a holding potential of − 70 mV, using electrodes with a glass capillary filled with 3 M KCl and a resistance between 0.5 and 1.5 MΩ. The compounds were tested by applying ascending concentrations, ranging from 1 to 30,000 nM, in at least six oocytes. Example traces for all recorded conditions can be found in Supplementary Figs. S2–S9.
TEVC data were analyzed using Ana (Dr. Michael Pusch, Genova, Italy), and statistics were performed using OriginPro 2020 (OriginLab Corporation, Northampton, USA). The inhibitory effect of each compound is calculated using the following equation: inhibition=1-Ic-Ih/Ia-Ih where Ih describes the current in the absence of agonists; Ia represents the steady-state current in the presence of the agonists; and Ic is defined as the steady-state after binding of agonist and compound. All dose response curves are fitted to the following logistic equation: y=A1-A2/1+x/x0^p+A2 where A1 describes the minimal inhibition of a compound and was set to 0; A2 represents the maximal inhibition of a compound; p is the slope of the curve; x0 is defined as the concentration at half-maximal inhibition; and x is the tested concentration. Data were statistically analyzed by one-way ANOVA and Tukey post-hoc mean comparison test in OriginPro 2020 (OriginLab Corporation, Northampton, USA). p values are indicated by * for p < 0.05, ** for p < 0.01, and *** for p < 0.001.

GluN1a wt/ GluN2B F114A = GluN1a wt/ GluN2B F114A (Rattus norvegicus, UniProt P35439+Q00960, F114A); settings: GluN1-1a/F114A, individual oocytes
Sequence of GluN1a wt/ GluN2B F114A (Q00960 27-1482 F114A, other chains not shown): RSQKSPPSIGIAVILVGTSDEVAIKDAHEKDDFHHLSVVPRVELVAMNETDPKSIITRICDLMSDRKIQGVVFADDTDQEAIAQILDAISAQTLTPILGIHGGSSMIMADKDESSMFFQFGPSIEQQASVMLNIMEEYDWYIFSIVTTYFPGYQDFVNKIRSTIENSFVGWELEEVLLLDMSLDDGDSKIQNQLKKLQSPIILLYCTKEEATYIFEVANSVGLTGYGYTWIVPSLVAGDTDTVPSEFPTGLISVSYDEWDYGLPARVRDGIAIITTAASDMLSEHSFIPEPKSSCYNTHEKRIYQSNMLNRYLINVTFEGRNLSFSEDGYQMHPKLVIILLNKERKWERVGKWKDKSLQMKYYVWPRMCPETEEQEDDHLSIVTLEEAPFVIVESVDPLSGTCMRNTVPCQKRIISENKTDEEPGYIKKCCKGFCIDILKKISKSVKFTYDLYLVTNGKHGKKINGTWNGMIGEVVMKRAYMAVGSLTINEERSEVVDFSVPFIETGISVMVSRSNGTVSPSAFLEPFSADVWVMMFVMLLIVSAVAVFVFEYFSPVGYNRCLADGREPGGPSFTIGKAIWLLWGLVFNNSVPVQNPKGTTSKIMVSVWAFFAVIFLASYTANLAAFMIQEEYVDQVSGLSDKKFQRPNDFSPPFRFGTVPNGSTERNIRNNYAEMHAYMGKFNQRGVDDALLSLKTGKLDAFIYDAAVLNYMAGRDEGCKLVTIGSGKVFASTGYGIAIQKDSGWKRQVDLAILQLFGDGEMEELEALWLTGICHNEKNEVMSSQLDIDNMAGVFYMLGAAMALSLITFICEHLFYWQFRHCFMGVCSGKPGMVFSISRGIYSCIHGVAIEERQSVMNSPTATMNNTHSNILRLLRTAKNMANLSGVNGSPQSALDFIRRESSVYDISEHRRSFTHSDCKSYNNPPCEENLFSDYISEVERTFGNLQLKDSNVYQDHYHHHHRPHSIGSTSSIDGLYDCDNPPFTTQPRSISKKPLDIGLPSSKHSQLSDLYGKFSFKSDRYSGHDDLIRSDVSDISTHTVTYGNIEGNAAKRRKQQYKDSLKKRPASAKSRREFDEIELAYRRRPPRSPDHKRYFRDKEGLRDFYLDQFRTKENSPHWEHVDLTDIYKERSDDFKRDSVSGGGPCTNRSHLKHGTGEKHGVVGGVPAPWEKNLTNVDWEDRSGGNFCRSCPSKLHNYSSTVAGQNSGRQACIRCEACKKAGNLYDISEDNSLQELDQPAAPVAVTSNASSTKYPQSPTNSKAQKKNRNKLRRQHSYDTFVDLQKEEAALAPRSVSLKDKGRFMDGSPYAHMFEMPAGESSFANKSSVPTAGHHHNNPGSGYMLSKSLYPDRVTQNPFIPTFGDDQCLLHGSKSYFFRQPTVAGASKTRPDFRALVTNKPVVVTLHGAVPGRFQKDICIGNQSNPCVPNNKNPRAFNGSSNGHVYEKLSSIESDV

GluN1a wt/ GluN2B Q110A = GluN1a wt/ GluN2B Q110A (Rattus norvegicus, UniProt P35439+Q00960, Q110A); settings: GluN1-1a/Q110A, individual oocytes
Sequence of GluN1a wt/ GluN2B Q110A (Q00960 27-1482 Q110A, other chains not shown): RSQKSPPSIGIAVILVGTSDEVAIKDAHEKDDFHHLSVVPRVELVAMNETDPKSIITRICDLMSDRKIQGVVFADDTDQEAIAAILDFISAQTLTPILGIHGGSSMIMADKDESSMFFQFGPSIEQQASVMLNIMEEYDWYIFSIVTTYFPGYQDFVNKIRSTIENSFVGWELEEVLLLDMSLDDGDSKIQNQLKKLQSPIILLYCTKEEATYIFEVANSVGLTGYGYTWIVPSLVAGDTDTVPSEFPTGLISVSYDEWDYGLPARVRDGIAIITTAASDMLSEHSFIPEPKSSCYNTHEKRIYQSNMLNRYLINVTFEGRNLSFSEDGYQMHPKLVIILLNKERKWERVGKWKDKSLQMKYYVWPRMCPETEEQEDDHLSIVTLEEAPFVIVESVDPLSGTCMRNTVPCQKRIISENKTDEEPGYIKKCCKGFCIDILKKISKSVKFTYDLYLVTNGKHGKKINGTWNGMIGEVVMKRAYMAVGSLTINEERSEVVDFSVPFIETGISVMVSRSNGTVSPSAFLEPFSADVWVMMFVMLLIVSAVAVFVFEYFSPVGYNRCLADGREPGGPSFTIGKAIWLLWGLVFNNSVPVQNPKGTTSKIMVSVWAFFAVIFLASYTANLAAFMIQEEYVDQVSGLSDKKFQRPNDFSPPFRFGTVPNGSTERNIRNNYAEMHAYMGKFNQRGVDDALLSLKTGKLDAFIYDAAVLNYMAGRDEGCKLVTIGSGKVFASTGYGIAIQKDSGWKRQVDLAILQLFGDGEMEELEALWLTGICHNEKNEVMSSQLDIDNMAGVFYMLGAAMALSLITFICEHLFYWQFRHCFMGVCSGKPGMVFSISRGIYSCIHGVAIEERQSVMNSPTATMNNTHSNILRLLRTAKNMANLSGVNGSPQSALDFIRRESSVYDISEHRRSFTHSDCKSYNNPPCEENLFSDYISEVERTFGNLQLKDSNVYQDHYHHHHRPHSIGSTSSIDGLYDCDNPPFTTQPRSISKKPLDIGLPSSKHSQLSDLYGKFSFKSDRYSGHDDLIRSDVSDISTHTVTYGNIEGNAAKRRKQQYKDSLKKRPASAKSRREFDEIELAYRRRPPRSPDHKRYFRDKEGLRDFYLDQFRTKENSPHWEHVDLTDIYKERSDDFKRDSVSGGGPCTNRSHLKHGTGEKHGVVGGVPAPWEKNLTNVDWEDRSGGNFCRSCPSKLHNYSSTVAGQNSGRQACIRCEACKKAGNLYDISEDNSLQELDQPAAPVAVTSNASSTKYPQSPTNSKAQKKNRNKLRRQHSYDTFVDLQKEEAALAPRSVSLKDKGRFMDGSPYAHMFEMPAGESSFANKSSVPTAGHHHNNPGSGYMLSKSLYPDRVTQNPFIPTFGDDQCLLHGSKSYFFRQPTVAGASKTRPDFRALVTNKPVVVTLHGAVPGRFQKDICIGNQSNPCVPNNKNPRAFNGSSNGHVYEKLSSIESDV

[1] = compound concentration 0.1 μM, 0.1 µM
[2] = compound concentration 1 μM, 1 µM
[3] = compound concentration 10 μM, 10 µM
[4] = compound concentration 30 μM, 30 µM

inhibition (%) (GluN1a wt/ GluN2B F114A; [1]): 2.548% and 6.871% | inhibition (%) (GluN1a wt/ GluN2B F114A; [2]): 11.2209% | inhibition (%) (GluN1a wt/ GluN2B F114A; [3]): 49.4384% | inhibition (%) (GluN1a wt/ GluN2B F114A; [4]): 65.8902%
Structure (SMILES): Oc1ccc2c(c1)CCN(CCCCc1ccccc1F)C[C@@H]2O [OF-NB1 R]
inhibition (%) (GluN1a wt/ GluN2B F176A; [1]): 0.0678% and 2.627% and 1.87% and 0.6849% and 0.2286% and 0.9658% and 0.03656% and 0.02653% and -0.1669% and 0.1209% and -0.04753% | inhibition (%) (GluN1a wt/ GluN2B F176A; [2]): 14.4407% and 14.4927% and 9.493% and 16.5753% and 15.6571% and 17.5593% and 23.2907% and 22.7381% and 16.1102% and 8.404% and 10.3375% | inhibition (%) (GluN1a wt/ GluN2B F176A; [3]): 28.6102% and 25.9058% and 19.4894% and 26.4384% and 28.2286% and 31.1677% and 39.1225% and 37.2778% and 33.222% and 21.8259% and 23.1701% | inhibition (%) (GluN1a wt/ GluN2B F176A; [4]): 42.0339% and 39.4475% and 34.8795% and 39.3151% and 43.3714% and 47.7612% and 57.3675% and 51.3929% and 49.7496% and 36.8803% and 42.9658% | inhibition (%) (GluN1a wt/ GluN2B Q110A; compound concentration 0.001 μM, 0.001 µM): -0.06931% and 0.4355% and 0% and -3.658% and 0.03081% | inhibition (%) (GluN1a wt/ GluN2B Q110A; compound concentration 0.01 μM, 0.01 µM): 1.232% and 1.612% and 0.6817% and 0.2175% and 0.2419% and -3.522% | inhibition (%) (GluN1a wt/ GluN2B Q110A; [1]): 1.479% and 2.565% and 9.884% and 1.015% and 0.8871% and -7.992% | inhibition (%) (GluN1a wt/ GluN2B Q110A; [2]): 81.3001% and 76.4859% and 76.5385% and 55.6925% and 70% and 59.6044% | inhibition (%) (GluN1a wt/ GluN2B Q110A; [3]): 88.7246% and 84.6994% and 80.9695% and 91.5881% and 81.6129% and 73.2864% | inhibition (%) (GluN1a wt/ GluN2B Q110A; [4]): 91.528% and 88.3036% and 81.8784% and 96.5917% and 92.7419% and 78.4069%
